Test results from ChEMBL document CHEMBL1201862, “PubChem BioAssay data set” (2004).

tested on: NCI-H322M; experiment: NCI-60 cell line screen, 48 h

Structure (SMILES)	GI50
CC(=O)N1CCN(c2ccc(OCC3COC(Cn4ccnc4)(c4ccc(Cl)cc4Cl)O3)cc2)CC1 (stereo unspecified) [KETOCONAZOLE]	inactive: 45 µM
CCOC(=O)c1nnsc1NC(=O)NN	inactive: > 100 µM
O=CC(O)C(O)C(O)COc1cc(CO)cc2c1C(=O)c1ccccc1C2=O (stereo unspecified)	inactive: > 100 µM
CCOC(=O)C12C3CCC1C2C(=O)C3 (stereo unspecified)	inactive: > 100 µM
CC(=O)c1c(SCCN2CCCC2)n(-c2ccccc2)c(=S)n(-c2ccccc2)c1=O	inactive: 21.5 µM
S=c1nc(Nc2ccc(Br)cc2)c2c3c(sc2[nH]1)CN(N1CCc2c(sc4[nH]c(=S)nc(Nc5ccc(Br)cc5)c24)C1)CC3	inactive: 26.8 µM
Cc1ccc(C(=O)N/N=C(\N=N\c2ccccc2)c2ccc(N(CCC#N)CCC#N)cc2C)cc1	inactive: > 100 µM
CC1CC(=O)C2CC(CO)=CCCC2C1(C)CC/C(=C/CO)CO (stereo unspecified)	inactive: > 100 µM
N#CCC(=O)N/N=C(\C(=O)Nc1ccc(Cl)c(Cl)c1)C1CN(c2ccccc2)N=C1N (stereo unspecified)	inactive: > 100 µM
CCOC(=O)C(C(=O)OCC)=C1N[C@H](C(=O)OCC)CS1	inactive: > 100 µM
N=C(N)SCc1nc(-c2ccc(Cl)cc2)no1	inactive: 26.5 µM
CCOC(=O)C(C(=O)OCC)=C1C=C(c2ccccc2)c2ccccc21	inactive: > 100 µM
O=c1c2ccccc2[nH]c2c(Cl)cc(Cl)c(N3CCCCC3)c12	inactive: 37.6 µM
O=C(N/N=C\c1ccc([N+](=O)[O-])cc1)Nc1ccc2ccccc2c1	inactive: 92.9 µM
CCOC(=O)c1cn2c(n1)sc1cc(Cl)cc(Cl)c12	inactive: > 100 µM
CCCOP1(=O)C=C(O)C(Cl)=C(C)C1 (stereo unspecified)	inactive: > 100 µM
[N-]=[N+]=Nc1c([N+](=O)[O-])c(Cl)nc2ccccc12	inactive: 8.93 µM
CN(C)c1ccc(/C=N/c2ccc(Oc3ccc(Cl)cc3)c(Cl)c2)cc1	inactive: 19.1 µM
O=C1O[C@H]2C3C4CCC(C4[C@@H]2I)[C@H]13 (stereo partly specified)	inactive: > 100 µM
CCC1C(C)c2c([nH]c3ccccc23)C2C(=O)N(c3ccccc3)C(=O)C21 (stereo unspecified)	inactive: 22.2 µM
CN1CC[C@@H](c2c(O)cc(O)c3c(=O)cc(-c4ccccc4Cl)oc23)[C@@H](O)C1	active: 0.0553 µM
CC(=O)OCC1OC(SC2=N/C(=C\c3ccc(Br)s3)C(=O)N2c2ccccc2)C(OC(C)=O)C(OC(C)=O)C1OC(C)=O (stereo unspecified)	inactive: 81.7 µM and inactive: 77.8 µM
CNC1C(=O)C(C)C(O)(C(CC(C)C(O)/C=C/C=C/CNC(=O)C(C)(C)C(O)\C(C)=C/C=C\C=C\Cc2cnc(C)o2)OC)C12C(=O)OC2C.CNC1C(=O)C(C)C(O)(C(CC(C)C(O)/C=C/C=C/CNC(=O)C(C)(C)C(O)\C(C)=C/C=C\C=C\Cc2cnc(C)o2)OC)C12C(=O)OC2COC (stereo unspecified)	inactive: 29.3 µM

Structure (SMILES)	GI50
COc1ccc(CC2Cc3ccccc3CC(=O)N2)cc1OC (stereo unspecified)	inactive: > 100 µM
COC(=O)c1ccc(C(=O)OC)c2nc3cc(C)ccc3nc12	inactive: 82.2 µM
CN(C)C(C1=C(O)C(c2ccccc2)N(c2ccccc2)C1=O)N1CCOCC1 (stereo unspecified)	inactive: > 10 µM
Clc1cc2c(c(CSC3=NCN(CC4CC4)CN3)c1)OCOC2	inactive: 25.2 µM
N#CCN1C(=O)c2cccc3cc([N+](=O)[O-])cc(c23)C1=O	inactive: 63.2 µM
CCC1CCN=C(Cn2cc(C)c(=O)[nH]c2=O)N1 (stereo unspecified)	inactive: > 100 µM
Oc1c(C(O)c2ccccn2)ccc2ccccc12 (stereo unspecified)	inactive: 64.1 µM
O=C(Cc1ccccc1)NNc1nc(NNC(=O)c2ccncc2)nc(Nc2ccc([N+](=O)[O-])cc2)n1	inactive: > 10 µM
Cc1ccc(-[n+]2cc([O-])on2)cc1	inactive: > 100 µM
CC1=C(C)SC(=C2Sc3[n-]c(=O)[nH]c(=O)c3S2)S1.CCCC[N+](CCCC)(CCCC)CCCC	inactive: > 100 µM
COC(=O)C(/C(=N/NC(N)=S)C(=O)Nc1ccccc1[N+](=O)[O-])c1cnc2ccccc2n1 (stereo unspecified)	inactive: > 100 µM
Cc1ccc(NC(Nc2ccc(C)cc2C)=C(C(Cl)=C(Cl)Cl)[N+](=O)[O-])c(C)c1	inactive: 18.5 µM
CCOC(=O)c1cc2c3c(c(C(C)=O)c(O)c2[nH]1)N(C(C)=O)CC3	inactive: > 100 µM
Nc1cc2c(c3ccccc13)C(CCl)CN2C(=O)c1cc2cc(NC(=O)c3cc4ccccc4o3)ccc2[nH]1 (stereo unspecified)	active: 0.0167 µM
O=S(=O)(O)c1cc(O)c2c(O)c(/N=N/c3ccc(/C=C/c4ccc(/N=N/c5c(S(=O)(=O)O)cc6cc(S(=O)(=O)O)cc(O)c6c5O)cc4S(=O)(=O)O)c(S(=O)(=O)O)c3)c(S(=O)(=O)O)cc2c1	inactive: > 100 µM
C[C@H]1CCCCC[C@@H]2CC(=O)CC2C(=O)CCC(=O)O1 (stereo partly specified)	inactive: > 100 µM
O=C(Cc1ccccc1)NN1C(=O)C(Cl)C1c1cc(Br)cc(Br)c1O (stereo unspecified)	inactive: 7.48 µM
O=C1c2ccoc2C(=O)c2oc(=O)ccc21	inactive: > 39.7 µM
NCCCCN(CCCN)Cc1ccccc1	inactive: > 100 µM
Cc1nc2ccccc2c(=O)n1NC(=O)c1ccc(CS)cc1	inactive: 47.8 µM
CC(=O)O[C@]1(C)CCC2C(C)C(=O)OC2C2C(C)[C@@H](O)CC21 (stereo partly specified)	inactive: 46.2 µM
N#C/C(=C\c1cc(Br)c(O)c(Br)c1)c1ccccn1	inactive: 93.1 µM
c1cc2c(cc1NC1=NCCO1)CCC2	inactive: > 10 µM

Structure (SMILES)	GI50
Nc1nc(N)c2ncn(-c3ccccc3)c2n1	inactive: > 100 µM
NC(C(=O)O)c1cc(O)no1 (stereo unspecified)	inactive: > 100 µM
CC(=O)OC12c3ccccc3-c3ccccc3C1C1C(=O)N(C)C(=O)C12Cl (stereo unspecified)	inactive: > 10 µM
Cc1cc(NN)nc2[nH]nc(N)c12	inactive: > 100 µM
C=CCNC(=O)C(C)C1CCC2(C)C=CC(=O)C(C)=C2C1O (stereo unspecified)	inactive: > 100 µM
O=C(CCN(C(=O)O)S(=O)(=O)c1ccc(NC(=O)c2ccccc2)cc1)Nc1ccccc1	inactive: > 100 µM
C=CC(OC(=O)C(C)C)c1ccc(OC(=O)C(C)C)cc1 (stereo unspecified)	inactive: 2.62 µM
CC(C)=C1C(=O)C[C@]2(C)C[C@H]3/C(=C(/C)CCC12)CC[C@@]3(C)O (stereo partly specified)	inactive: > 50 µM
CC(/C=C/C(O)=C1/C(=O)CNC1=O)=C\[C@@H](C)[C@H]1O[C@@]2(C)O[C@H](C(=O)[C@@H]3O[C@@]32C)[C@@H]1C	inactive: 17.6 µM
COc1cc(COC(=O)N2CC=CC2C(=O)O)c([N+](=O)[O-])cc1OC (stereo unspecified)	inactive: > 100 µM
CC1CC(=O)N(N(C)C)C(C#N)(C#N)C1(C#N)C#N (stereo unspecified)	inactive: > 71.8 µM
COCC1N=C(c2cc(OC)c(OC)c(OC)c2-c2cc3c(cc2[C@@H](C)O)OCO3)O[C@H]1c1ccccc1 (stereo partly specified)	inactive: > 100 µM
CC(C)(C)OC(=O)NC(Cc1ccc(OCc2ccccc2)cn1)C(N)=O (stereo unspecified)	inactive: > 100 µM
COc1ccc(/C=C/c2cnccn2)cc1OC	inactive: > 10 µM
CC(C)(O)C(O)COc1c2c(cc3oc(=O)ccc13)OCO2 (stereo unspecified)	inactive: > 100 µM
CC1(C)COC(c2ccc(C(=O)c3ccc(Cl)cc3)cc2)=N1	inactive: > 100 µM
Cc1ccc(S(=O)(=O)NC(=O)NS(=O)(=O)O)cc1	inactive: > 100 µM
O=c1cc(-c2ccncc2)[nH]c2cc3c(cc12)OCO3	inactive: > 100 µM
CC1=C2c3c(C)ccc4ccc(C)c(c34)C2(O)C(C)C1=O (stereo unspecified)	inactive: > 100 µM
N#C/C(=C/N1C(=O)/C(=C/c2ccc([N+](=O)[O-])cc2)SC1=S)c1nc2ccccc2s1	inactive: 21.2 µM
O=C(Nc1ccc(Cl)cc1)c1cc2cc(/N=N/c3ccccc3Cl)ccc2oc1=O	inactive: 11 µM
CC(NCCS(=O)(=O)O)C(=O)O (stereo unspecified)	inactive: > 100 µM
COCCN(C(C)=O)C1CCC2(SCCS2)c2[nH]c3ccccc3c21 (stereo unspecified)	inactive: > 100 µM

Structure (SMILES)	GI50
O=C(CN1C(=O)CC(c2ccccc2)(c2ccccc2)C1=O)N1CCN(CCO)CC1	inactive: > 100 µM
Cc1ccc(/C=C2\CCCC(C(NO)c3ccc(C)cc3)C2=NO)cc1 (stereo unspecified)	inactive: 17.2 µM
Cc1cc(C)nc(SC(C)C(=O)N/N=C/c2ccc(OCc3ccccc3)cc2)n1 (stereo unspecified)	inactive: 77.1 µM
N/N=C(/C(=O)Nc1cccc(Cl)c1)C(C(=O)c1ccc(O)cc1O)C1OC(=O)c2ccccc21 (stereo unspecified)	inactive: > 100 µM
C[C@H](C1CC(C)(O)C(C)(O)C(O)O1)[C@H]1CC[C@H]2[C@@H]3[C@@H]4O[C@@H]4[C@@]4(O)CC=CC(=O)[C@]4(C)[C@H]3CC[C@]12C (stereo partly specified)	inactive: > 50 µM
NC(=S)C1=C(N)Oc2c(c(=O)oc3ccccc23)C1c1ccc(Br)cc1 (stereo unspecified)	inactive: > 100 µM
CC(=O)NC1c2ccccc2C(C)(C)C12CCC1(CC2)OCCO1 (stereo unspecified)	inactive: > 100 µM
CC(=O)CC(N)=O	inactive: > 100 µM
O=C1c2ccccc2-c2nc3ccc(O)cc3n21	inactive: > 100 µM
COC(=O)CN1CCN(c2cccc3c2CCCC3)CC1	inactive: > 100 µM
Clc1ccc(C2SCc3nc4ccccc4n32)cc1Cl (stereo unspecified)	inactive: 22.3 µM
CCOC(=O)c1sc(N/N=C2\NC(=O)/C(=C/c3ccc([N+](=O)[O-])cc3)S2)nc1C	inactive: 26.2 µM
CN(C)C(=O)C(F)(F)C(c1ccccc1)C1C(=O)N(C)C(=O)N(C)C1=O (stereo unspecified)	inactive: > 100 µM
CC12OC3(O)C4C5CC(C6C5C3C61)C42 (stereo unspecified)	inactive: > 100 µM
CS/C(C#N)=C(\C#N)SC	inactive: 24.1 µM
CC(C)[Si](OCC1CC(C[C@H]2CC(C[C@H]3C[C@@H](CO[Si](C(C)C)(C(C)C)C(C)C)OC(C)(C)O3)OC(C)(C)O2)OC(C)(C)O1)(C(C)C)C(C)C (stereo partly specified)	inactive: > 100 µM
N#[N+][c-]1c(-c2ccccc2)n[nH]c1=O	inactive: > 100 µM
COc1ccc(/C(Cl)=C(\C=O)c2cc(OC)c(OC)c(OC)c2)cc1OC	inactive: 30.8 µM
S=c1[nH]nc(Cc2ccccc2)c(=S)[nH]1	inactive: > 100 µM
N#CC(N)(C(=O)C(=O)NCCCNC(=O)C(=O)C(N)(C#N)c1ccc(Cl)cc1)c1ccc(Cl)cc1 (stereo unspecified)	inactive: > 100 µM
COCOCC1CCCN1CN1CCC[C@H]1COCOC (stereo partly specified)	inactive: > 100 µM
C#Cc1c(C)c(/C=C/C(C)=C/C(=O)OC)n(C)c1C	inactive: > 100 µM

Where “and” joins values, the source holds several entries; their conditions need not be identical. Equal entries are not always repeated.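 Compound exposure: 48 hours, 5 concentrations, 96-well plates. GI50 is the concentration that inhibits growth by half.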 Calls of active or inactive are those of the source. No stated cut-off is given here; in the data, active = GI50 up to about 1.1 µM and inactive = higher.
